Residue numbers refer to the chain shown, from its start. These are yes or no findings as the source states them, for the method shown. In cells and extracts the contact can be indirect. Some binding calls cover weakened binding; strength is not graded here. For some of these results: Where a sequence is shown, tags or fusion partners need not be part of it.
T1: Strep-HA-tagged TBK1 (NIH3T3) (murine) (UniProt Q9WUN2)
T1 sequence: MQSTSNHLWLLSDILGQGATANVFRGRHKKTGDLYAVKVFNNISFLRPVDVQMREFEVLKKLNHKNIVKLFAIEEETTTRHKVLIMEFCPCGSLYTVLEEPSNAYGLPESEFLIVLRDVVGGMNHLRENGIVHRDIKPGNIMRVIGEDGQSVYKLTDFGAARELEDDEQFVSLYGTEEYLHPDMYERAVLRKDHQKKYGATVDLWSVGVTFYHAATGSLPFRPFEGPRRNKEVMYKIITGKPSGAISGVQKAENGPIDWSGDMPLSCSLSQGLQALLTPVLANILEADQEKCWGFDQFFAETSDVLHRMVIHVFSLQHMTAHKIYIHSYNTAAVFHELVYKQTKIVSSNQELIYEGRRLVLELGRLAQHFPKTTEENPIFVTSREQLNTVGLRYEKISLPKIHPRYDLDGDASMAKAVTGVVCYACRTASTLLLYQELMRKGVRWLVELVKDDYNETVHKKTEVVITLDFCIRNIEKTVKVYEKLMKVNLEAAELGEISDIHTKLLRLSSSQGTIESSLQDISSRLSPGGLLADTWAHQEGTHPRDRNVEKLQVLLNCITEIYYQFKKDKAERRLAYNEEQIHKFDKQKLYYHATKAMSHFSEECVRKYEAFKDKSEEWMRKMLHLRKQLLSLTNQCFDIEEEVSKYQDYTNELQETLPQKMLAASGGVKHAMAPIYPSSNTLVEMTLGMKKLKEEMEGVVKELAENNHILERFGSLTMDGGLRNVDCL

Sequences of proteins named here, by UniProt entry; tags and fusion partners are left off.
UniProt A2A9T0: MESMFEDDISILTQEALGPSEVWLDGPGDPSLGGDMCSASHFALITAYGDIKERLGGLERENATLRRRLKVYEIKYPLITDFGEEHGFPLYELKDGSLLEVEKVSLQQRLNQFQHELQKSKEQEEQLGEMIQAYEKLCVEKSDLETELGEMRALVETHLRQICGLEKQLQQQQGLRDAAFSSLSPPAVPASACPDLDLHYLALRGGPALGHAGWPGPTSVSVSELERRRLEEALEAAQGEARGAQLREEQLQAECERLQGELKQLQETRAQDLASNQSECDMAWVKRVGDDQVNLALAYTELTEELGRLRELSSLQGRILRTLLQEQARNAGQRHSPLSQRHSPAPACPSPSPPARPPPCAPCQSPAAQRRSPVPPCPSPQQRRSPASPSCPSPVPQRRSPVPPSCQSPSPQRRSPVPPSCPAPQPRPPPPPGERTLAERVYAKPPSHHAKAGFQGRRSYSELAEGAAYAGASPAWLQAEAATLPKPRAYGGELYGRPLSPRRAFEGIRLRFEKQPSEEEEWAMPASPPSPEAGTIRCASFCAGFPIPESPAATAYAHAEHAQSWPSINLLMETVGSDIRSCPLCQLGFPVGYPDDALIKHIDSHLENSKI
UniProt Q9QYP6: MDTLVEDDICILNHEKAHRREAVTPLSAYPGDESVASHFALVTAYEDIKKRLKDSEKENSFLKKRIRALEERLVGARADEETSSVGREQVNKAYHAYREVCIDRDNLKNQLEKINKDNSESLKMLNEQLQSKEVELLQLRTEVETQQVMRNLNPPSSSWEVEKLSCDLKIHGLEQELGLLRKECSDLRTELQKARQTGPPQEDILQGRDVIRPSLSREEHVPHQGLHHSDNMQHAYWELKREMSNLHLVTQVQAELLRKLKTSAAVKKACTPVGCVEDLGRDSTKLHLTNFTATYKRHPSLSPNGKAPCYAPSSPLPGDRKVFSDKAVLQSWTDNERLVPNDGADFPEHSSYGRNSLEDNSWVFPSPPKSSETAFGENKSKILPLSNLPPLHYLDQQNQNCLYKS

T2: Strep-HA fusion of TBK1 E706K (reconstituted MEFs) (murine) (UniProt Q9WUN2)
T2 sequence: T1 sequence with E706K

T3: Strep-HA fusion of TBK1 L693A (reconstituted MEFs) (murine) (UniProt Q9WUN2)
T3 sequence: T1 sequence with L693A

T4: Strep-HA fusion of TBK1 wt (reconstituted MEFs) (murine) (UniProt Q9WUN2)
T4 sequence: T1 sequence

T5: Strep-HA fusion of TBK1 K694E (reconstituted MEFs) (murine) (UniProt Q9WUN2)
T5 sequence: T1 sequence with K694E

B1: endogenous TANK (NIH3T3) (protein, UniProt P70347 1-448)
chain: MSLKRHSLRRNACHLETRAGIPTILYSDATGQRGMDKNIGEQLNRAYEAFRQACMDRDSAVRELQQKQTENYEQRIREQQEQLSFQQNLIDRLKSQLLLVDSSRDNSYGYVPLLEDSDRRKNNLTLDEPHDKVKLGTLRDKQSKVRRQEVSSGKESAKGLNIPLHHERDNIEKTFWDLKEEFHRICLLAKAQKDHLSKLNIPDIATDTQCSVPIQCTDKTEKQEALFKPQAKDDINRGMSCVTAVTPRGLGRDEEDTSFESLSKFNVKFPPMDNDSIFLHSTPEAPSILAPATPETVCQDRFNMEVRDNPGNFVKTEETLFEIQGIDPITSAIQNLKTTDKTNPSNLRATCLPAGDHNVFYVNTFPLQDPPDAPFPSLDSPGKAVRGPQQPFWKPFLNQDTDLVVPSDSDSELLKPLVCEFCQELFPPSITSRGDFLRHLNTHFNGET
B2: endogenous TANK (MEFs) (protein, UniProt P70347 1-448)
chain: B1 chain

Assays:
[1] = target: T1, Strep-HA-tagged TBK1 (NIH3T3) (murine); test: co-IP; NIH3T3 cells stably expressing Strep-HA-tagged baits; anti-HA agarose; immunoblotting with anti-HA.11, anti-TBK1, anti-TANK
[2] = target: Strep-HA-tagged Sintbad (NIH3T3) (UniProt A2A9T0); test: as above
[3] = target: Strep-HA-tagged NAP1 (NIH3T3) (not stated (human or mouse cDNA cloned)) (UniProt Q9QYP6); test: as above
[4] = target: T2, Strep-HA fusion of TBK1 E706K (reconstituted MEFs) (murine); test: co-IP; TBK1/IKK-i-deficient MEFs reconstituted with Strep-HA fusions of TBK1 wt or mutants; anti-HA agarose; immunoblotting with anti-HA.11, anti-TBK1, anti-TANK
[5] = target: T3, Strep-HA fusion of TBK1 L693A (reconstituted MEFs) (murine); test: as above
[6] = target: T4, Strep-HA fusion of TBK1 wt (reconstituted MEFs) (murine); test: as above
[7] = target: T5, Strep-HA fusion of TBK1 K694E (reconstituted MEFs) (murine); test: as above

Row | Binder | binding [1] | binding [2] | binding [3] | binding [4] | binding [5] | binding [6] | binding [7]
1 | B1 | binds | no binding | no binding |  |  |  | 
2 | B2 |  |  |  | binds | no binding | binds | no binding

— PMC3169550
